# In the supplement of paper PMC3334620:
# Over roughly 33,000 sequences, “E-score (-0.5 to 0.5)” has its median near -0.043; the highest 2% begin near 0.37. The list shows a part of the results.
# Biological target: T1, Upc2 (UniProt Q12151)
# T1 sequence: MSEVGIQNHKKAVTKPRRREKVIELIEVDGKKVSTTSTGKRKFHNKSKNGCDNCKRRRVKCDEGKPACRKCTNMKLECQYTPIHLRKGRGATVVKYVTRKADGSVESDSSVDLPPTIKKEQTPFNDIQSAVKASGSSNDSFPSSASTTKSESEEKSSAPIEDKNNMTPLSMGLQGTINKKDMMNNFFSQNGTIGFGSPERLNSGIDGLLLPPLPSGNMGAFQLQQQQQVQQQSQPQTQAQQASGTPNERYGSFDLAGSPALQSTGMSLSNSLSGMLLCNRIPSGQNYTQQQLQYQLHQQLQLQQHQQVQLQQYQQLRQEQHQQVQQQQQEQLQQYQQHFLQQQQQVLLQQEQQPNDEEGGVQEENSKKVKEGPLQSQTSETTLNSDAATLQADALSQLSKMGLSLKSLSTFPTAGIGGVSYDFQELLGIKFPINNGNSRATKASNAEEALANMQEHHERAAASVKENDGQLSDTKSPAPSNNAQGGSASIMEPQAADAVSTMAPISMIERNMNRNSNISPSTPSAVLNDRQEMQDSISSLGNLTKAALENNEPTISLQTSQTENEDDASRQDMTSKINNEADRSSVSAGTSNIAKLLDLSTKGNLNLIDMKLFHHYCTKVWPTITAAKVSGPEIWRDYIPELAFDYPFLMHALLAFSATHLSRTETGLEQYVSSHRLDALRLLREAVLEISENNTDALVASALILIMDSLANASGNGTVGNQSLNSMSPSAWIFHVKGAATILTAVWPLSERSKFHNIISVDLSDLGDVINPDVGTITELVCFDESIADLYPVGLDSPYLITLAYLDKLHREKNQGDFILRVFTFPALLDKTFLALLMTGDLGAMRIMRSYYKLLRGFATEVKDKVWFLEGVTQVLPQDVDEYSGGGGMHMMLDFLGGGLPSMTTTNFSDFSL
# Assay: PBM E-score (8-mer binding enrichment) (E-score (-0.5 to 0.5)); higher = stronger / more preferred TF binding; most listed sequences are background and not binding sites
# Conditions: protein concentration: 200 nM; construct: GST-full length
# Procedure, shortened: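 PURExpress in vitro transcription/translation supplied GST-tagged yeast transcription factors, either full-length or DNA-binding domain. Applied at about 100-200 nM to universal all-10-mer Agilent arrays double-stranded by primer extension, the bound protein was detected with fluorescent anti-GST. E-scores, modified Wilcoxon-Mann-Whitney statistics, were given by the Universal PBM Analysis Suite to ungapped eight-base words pooled with their reverse complements after masliner normalisation.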
row,Sequence,PBM E-score
1,ATCAGACG,0.0965
2,ACTGCGGG,-0.119
3,ACAGGTAG,-0.0424
4,AGCAAGGA,-0.0783
5,AAAGTCAT,-0.0584
6,AGCCATTG,-0.0338
7,AGATCCAC,-0.191
8,AATGTGAC,-0.138
9,GAGCGGAA,0.0446
10,CACGAGGG,0.114
11,AGGACTAA,-0.175
12,CAACGGCC,-0.111
13,AAGTGTAA,-0.051
14,ACTCACTG,-0.206
15,AACAACAA,0.054
16,AAACGCGC,0.217
17,CGTGTGCA,-0.131
18,CACCCGTC,-0.188
19,CAAGTGGG,-0.0996
20,AATAGCCA,-0.054
21,GTTGCAAA,0.106
22,AATTAATC,0.0954
23,CTGCATGC,-0.0745
24,AGGGTCTC,-0.231
25,CTCCGCGC,-0.0602

row,Sequence,PBM E-score
1,GATCTCAC,-0.206
2,CCGACTAA,0.0553
3,TCTCGTCA,-0.0265
4,ATCTATGC,-0.0274
5,AAGATCAA,-0.0151
6,GACACTAA,0.0421
7,CGCGATAG,0.121
8,AAACGCAC,0.26
9,GAGAACTC,-0.127
10,AACAGCCC,-0.122
11,ATCGTACG,0.435
12,AGTGCCTC,-0.0833
13,GCTTATAC,0.346
14,AGAGAGTA,-0.0841
15,TCTGGAAA,0.0349
16,CCCAGGTA,-0.214
17,CCCCTCGA,-0.0221
18,CAATGGGC,-0.258
19,CGTGGAGA,-0.0514
20,ACGATTCG,0.333
21,GGCTTAAC,0.137
22,ATGAGCGG,-0.0954
23,GAGGCAAC,-0.104
24,AAGGGATG,-0.197
25,CGCTGCTA,-0.0354

row,Sequence,PBM E-score
1,TCCACCGA,-0.179
2,GTTGGTAA,0.206
3,ACGTCCAA,0.0137
4,AGAACTAT,0.111
5,ACCCGAGC,0.203
6,TGTATCAA,-0.0549
7,ATTCTCTG,-0.167
8,GAGCTATA,-0.049
9,AGTTATCA,-0.103
10,CGCCTCCG,-0.148
11,ACAAACTG,-0.0534
12,AGGCGAGG,0.0301
13,CGGGAAGA,0.169
14,ATGTTATC,0.0151
15,AGTGCTGG,-0.234
16,GCCAGACA,-0.147
17,GGTGTCAC,-0.142
18,ATACCGGG,0.0605
19,CTACTGAC,-0.241
20,AGATCGCT,0.0602
21,ATTCAAAT,-0.033
22,CTCGCTAA,0.309
23,AGGCAAAT,-0.0745
24,AAAAACAG,-0.0252
25,TCGACCCA,-0.0749

row,Sequence,PBM E-score
1,ATGCATGC,-0.148
2,AACGGAAC,0.308
3,AGCAATAA,-0.107
4,GACTTGCA,0.0268
5,AGACACCA,-0.0334
6,ACCCCGCA,0.0175
7,CCTGTTGA,-0.114
8,AGAGTACA,-0.0785
9,AGTTGTAT,-0.135
10,ATTACGGG,0.0372
11,GAGCGTTA,-0.00232
12,ATTGGCAC,-0.184
13,CTACGGAC,-0.0487
14,GATACGGA,0.278
15,TAAGATCA,-0.0602
16,GCAAGCCA,-0.081
17,GAATATGC,0.0393
18,CGCCTAAG,-0.0039
19,ATCGTGCG,0.259
20,CGAACTGA,-0.0113
21,CGGAGACG,-0.00701
22,CGCCACTA,-0.193
23,TCCACAGA,-0.123
24,GAACTCCA,-0.103
25,GCAGATAA,-0.0652

row,Sequence,PBM E-score
1,AATTATGA,-0.0252
2,CCAAGTCG,-0.0095
3,CCCACCTC,-0.0334
4,GAGACAGC,-0.181
5,AGCTTACG,0.336
6,CGAAGTCC,-0.0584
7,ATATACGC,0.387
8,TGCCCGCA,0.0619
9,GCCGCTGA,-0.198
10,AATGCTGA,-0.354
11,GACCCTCA,-0.386
12,GTATAAGA,0.395
13,AGAGGAAC,-0.152
14,CTCCTCCA,-0.239
15,ATGAATAG,-0.0435
16,AGCGTTAG,-0.0103
17,CCCTTAGG,-0.121
18,GTGAAAAA,0.00944
19,CAATCGAC,-0.125
20,ACGAGAGT,0.332
21,GTTATTTA,0.142
22,AGCTTAGC,-0.0511
23,AAAGCTGA,-0.126
24,AGGTTTCC,-0.0773
25,AGGCTGAC,-0.101

row,Sequence,PBM E-score
1,CCATAATC,-0.0914
2,ATGCCGTG,-0.164
3,AAGCTAGC,-0.0164
4,ATGAACAG,-0.0232
5,CAGGCGTC,-0.0547
6,ACTGACAG,0.161
7,GAAGTTGA,0.0259
8,AAGGGTAT,-0.083
9,CGACCGAA,0.0722
10,CAGAGAAG,0.059
11,GGAATAGA,-0.163
12,GCCCGTAA,0.278
13,AGATCTAA,-0.0877
14,AGAGTGCG,0.0695
15,CAATGCCC,-0.124
16,CACCGATC,-0.0123
17,AGGTGAAA,0.0164
18,ACTCACAA,-0.0892
19,AATTCATG,0.0851
20,CCACAAGG,-0.327
21,GCGGATCC,-0.0159
22,CCACTAGC,-0.216
23,CCATAGAG,-0.304
24,GCCGTTCA,0.31
25,GAGACCTA,-0.0109

row,Sequence,PBM E-score
1,ACCACAAT,0.00119
2,GAACGCGC,0.234
3,GCGACGAC,-0.0205
4,AGAGTGGA,-0.257
5,AACGCCAC,-0.0129
6,CATGATTA,0.0966
7,CAAAGACG,-0.267
8,ACTACCCG,0.0174
9,AAAGCAGC,-0.0921
10,CTCATCGA,0.0301
11,GCCGCCGC,-0.199
12,ATGCCGAC,-0.0823
13,ATGGGGAC,-0.207
14,ACCTCTCA,-0.205
15,CTACTAAC,-0.0374
16,ACACAGAT,-0.068
17,CCCAGCGA,-0.0488
18,GGCCAACA,-0.0678
19,CAGCAATG,-0.195
20,AGACGGTG,-0.109
21,CAAGACAG,-0.356
22,ACGAGTTC,0.342
